In PubChem BioAssay AID1346428 (National Center for Advancing Translational Sciences (NCATS), 2018):
Out of some 48,000 compounds screened, about 1,200 (2.5%) were called active. Not shown: some 2% with an inconclusive outcome.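 How the source made its calls: active means activation of at least 60% and not above a set upper limit (about 1 call in 100 departs from these limits); inconclusive means activation of 40% to 60%, or above that upper limit; inactive means activation under 40%.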 The list shows a part of the results.

biological target: Probable G-protein coupled receptor 32 (Homo sapiens) (UniProt O75388); assay: qHTS for Agonists of Human Resolvin D1 Receptor DRV1; settings: CHO-K1 GPR32 beta-arrestin PathHunter luminescence, 90 min; at 76.9 µM; hits give high values; zero percent set by DMSO-only wells; further: 0% is about no effect
UniProt O75388, sequence (O75388 whole entry, looked up): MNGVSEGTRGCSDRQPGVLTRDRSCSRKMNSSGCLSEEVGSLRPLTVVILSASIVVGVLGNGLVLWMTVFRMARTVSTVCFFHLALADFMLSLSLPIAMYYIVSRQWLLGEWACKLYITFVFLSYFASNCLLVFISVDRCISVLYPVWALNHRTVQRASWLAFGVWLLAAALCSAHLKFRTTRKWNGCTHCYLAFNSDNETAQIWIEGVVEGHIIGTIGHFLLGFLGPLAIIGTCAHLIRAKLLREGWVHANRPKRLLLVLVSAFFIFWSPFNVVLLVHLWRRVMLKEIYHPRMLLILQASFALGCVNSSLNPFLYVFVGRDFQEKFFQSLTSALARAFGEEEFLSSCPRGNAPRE
Outline: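 Beta-arrestin recruitment read-out: luminescence from complemented beta-Gal in CHO-K1 GPR32 PathHunter cells, measured 1 h after detection reagent at ambient temperature following 90 min compound exposure at 37 °C; DMSO served as basal (EC0) control.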

SMILES	activation
COC(=O)Cn1c(CN2CCN(c3ccc(OC)cc3)CC2)nc2c1c(=O)[nH]c(=O)n2C	inactive: -5.41%
CCOC(=O)c1c(S(=O)(=O)NCC(=O)Nc2cccc(CC)c2)c(C)n(C)c1C	inactive: -13.1%
CCOc1ccc(NC(=O)c2cc(S(=O)(=O)NC3CCCC3)ccc2F)cc1	inactive: -19.2%
O=C(c1ccc(Cl)cc1)N1CCN(c2ccc([N+](=O)[O-])c3ncccc23)CC1	inactive: 9.51%
Clc1cccc(-c2csc(-c3nc(-c4ccc(Br)s4)cs3)n2)c1	inactive: 15.9%
CCN(CC)C(=O)c1sc2c(c1C)c(=O)n(-c1ccccc1)c(=O)n2Cc1cc(=O)n2ccccc2n1	inactive: -0.396%
O=C(CCNS(=O)(=O)c1ccc2c(c1)CCN2C(=O)C1CC1)N1CCN(c2ccc(F)cc2)CC1	active: 69.2%
CCN1C(C(=O)c2ccccc2)=C(OC(=O)C(C)C)c2ccccc2S1(=O)=O	inactive: -42.4%
COc1ccc(S(=O)(=O)c2cn(Cc3ccccc3)c3cc(N4CCCC4)c(F)cc3c2=O)cc1	inactive: -21.2%
CCCOc1cccc(C(=O)Nc2ccc(-c3nc4ccccc4s3)c(Cl)c2)c1	inactive: -16.8%
COc1ccc(CCNC(=O)CCCCn2c(=O)c3ccccc3n(CC(=O)Nc3ccccc3C)c2=O)cc1OC	inactive: -26.4%
COc1ccc(CCNC(=O)CCn2c(=O)c3ccccc3n(Cc3ccc(Cl)cc3)c2=O)cc1OC	inactive: -5.5%
CCc1ccccc1NC(=O)Cn1c(=O)nc(-c2ccccc2)c2ccccc21	inactive: -4.04%
CCOC(=O)c1c(C)[nH]c(C)c1S(=O)(=O)N1CCC(C(=O)NCc2ccc(C)cc2)CC1	inactive: 17.4%
C=C(C)CSc1nc2sc3c(c2c(=O)n1CCCC)CCCC3	inactive: 29.8%
CCn1c2c(c(=O)n3ncc(C(=O)Nc4cccc(Cl)c4C)c13)CN(Cc1ccc(OC)cc1)CC2	inactive: -17.5%
COc1ccc(CNC(=O)C2CCN(c3nc4ccc(C)cc4[nH]3)CC2)cc1	inactive: -5.56%
Cc1cc(C)cc(NC(=O)CSc2nncn3c2cc2occc23)c1	inactive: -19.1%
O=C(Nc1ccc(N2CCN(CCOc3ccc(Cl)cc3)CC2)c(C(=O)O)c1)c1ccc(F)cc1	inactive: -5.47%
CCCn1c(SCC(O)c2cccc(OC)c2)nc2ccccc21 (configuration not stated)	inactive: -15.8%
Cc1ccc(C)c(CN2CCCN(Cc3cc(C)ccc3C)S2(=O)=O)c1	inactive: -12.3%

SMILES	activation
COc1ccccc1C(=O)NC1(C(F)(F)F)C(=O)Nc2c1c(=O)[nH]c(=O)n2CCc1ccccc1 (configuration not stated)	inactive: 21.2%
COc1ccc(CNC(=O)c2nnn(CC(=O)Nc3cc(C)cc(C)c3)c2N)cc1	inactive: -0.68%
CCc1nc2ccccc2n1CCCCOc1ccccc1C	inactive: 18.4%
Cc1cnc(NS(=O)(=O)c2ccc(N)cc2)nc1	inactive: -5.34%
COC(=O)c1ccc(-n2c(/C=C\c3cccc(Br)c3)nc3ccccc3c2=O)cc1	inactive: -11.9%
Cc1ccc(S(=O)(=O)C(CNC(=O)C(=O)NCCc2ccccc2)c2ccco2)cc1 (configuration not stated)	inactive: -10.5%
Cc1ccccc1CCNC(=O)C1CCN(c2nc3ccccc3nc2C(F)(F)F)CC1	inactive: 1.25%
COc1cc(CN(C(=O)c2cccc(C)c2)c2ccccn2)cc(OC)c1OC	inactive: -0.6%
Cc1ccc(-n2c(SCC(=O)NCc3ccccc3)nc3c([nH]c4ccccc43)c2=O)cc1	inactive: -16%
CCOc1ccc(C(=O)NCCn2cc(SCC(=O)Nc3ccccc3)c3ccccc32)cc1	inactive: 12.7%
COC(=O)c1cc(NC(=O)c2sc3ncn(Cc4cccc(F)c4)c(=O)c3c2C)cc(C(=O)OC)c1	inactive: 6.12%
COc1ccccc1NC(=O)CCS(=O)(=O)c1cc2c3c(c1)CCN3C(=O)CC2	inactive: -13.2%
CCC1CCCCN1C(=O)c1nn(-c2ccc(OC)cc2)c(=O)c2c1c1ccccc1n2C (configuration not stated)	inactive: 4.21%
O=C(NCc1ccccc1Cl)c1cc(=O)[nH]c2ccc(S(=O)(=O)N3CCCCC3)cc12	inactive: 10.8%
COc1ccccc1CNC(=O)Cn1c(=O)oc2cc(S(=O)(=O)NCc3ccccc3)ccc21	inactive: -0.597%
CC1=C(C(=O)Nc2ccc(Cl)cc2)C(C(C)C)n2nc(SCc3ccc(Cl)cc3)nc2N1 (configuration not stated)	inactive: -3.27%
Cc1ccc(C)c(N2CCN(C(=O)CCn3c(=O)c4cccn4c4cccnc43)CC2)c1	inactive: -14.2%
COc1ccccc1Nc1nc(-c2ccccc2Cl)c2cc(Br)ccc2n1	inactive: -25.9%
CCN(Cc1ccccc1)C(=O)CN1C(=O)COc2ccc(S(=O)(=O)N(CC)CC)cc21	inactive: -17.7%
O=C(NCC1CCN(Cc2cccc(Cl)c2)CC1)c1cc2ccc3cccnc3c2[nH]1	inactive: -2.1%
O=C(Cn1nc(C(F)(F)F)c2c1CCC2)Nc1ccc(Cl)cc1	inactive: 39.4%

SMILES	activation
COc1ccc(OC)c(CCNC(=O)C2=C(C)C(=O)OC23CCC(C)CC3)c1 (configuration not stated)	inactive: -27.3%
Cc1cc(C)c2c(CC(=O)Nc3ccc(S(=O)(=O)Nc4ncccn4)cc3)coc2c1	inactive: 14.9%
O=C(Nc1cnc(N2CCC(N3CCCCC3)CC2)c(C(=O)O)c1)c1ccc(Br)cc1	inactive: 14.5%
CCn1nc(C)c(CCN(C)C(=O)Nc2cc(C)cc(C)c2)c1C	inactive: 6.37%
CCc1ccc(CNC(=O)Cn2c(-c3cccs3)cc3cc(F)ccc32)cc1	inactive: -2.7%
COc1ccccc1NC(=O)c1c(NC(=O)Cc2ccccc2)sc2c1CCC(C(C)(C)C)C2 (configuration not stated)	inactive: -4.17%
COc1ccc(-n2c(=O)c3c(c4cc(OC)ccc4n3C)n(Cc3ccc(F)cc3Cl)c2=O)cc1	inactive: 7.05%
COc1ccc(-c2cc(C(C)=O)c(C)n2CCC(=O)Nc2ccc(C(F)(F)F)cc2)cc1	inactive: 4.56%
Cc1cc(C)nc(-n2nc(C)c3c2NC(=O)CC3c2cc(F)ccc2F)n1 (configuration not stated)	inactive: -1.43%
COc1ccccc1NC(=O)Cn1c(=O)n(Cc2ccccc2)c(=O)c2c3c(sc21)CN(C(C)=O)CC3	inactive: -10.1%
Cn1c(=O)cc(SCC(=O)N2CCN(c3ccccc3F)CC2)c2cc(Cl)ccc21	inactive: -4.15%
CC(C)Sc1ncc(Cl)c(C(=O)Nc2ccc(S(=O)(=O)Nc3ncccn3)cc2)n1	inactive: -6.05%
Cc1ccc(NC(=O)c2cc3c([nH]c2=O)CC(C)(C)CC3=O)c(C)c1	inactive: 5.66%
COc1ccc(CNC(=O)CSc2n[nH]c(-c3ccc(OC)cc3)n2)cc1	inactive: 10%
Cc1cc(Cl)ccc1OCC(=O)Nc1c(C(=O)c2ccccc2)oc2ccccc12	inactive: -11.4%
O=C(CSc1ncc(-c2ccccc2)[nH]1)Nc1cccc(C(F)(F)F)c1	inactive: -11.8%
COc1cc(Cn2c(=O)sc3ccccc32)ccc1OCCC(C)C	inactive: -28.6%
CC(C)c1ccc2c(c1)-c1ccccc1S(=O)(=O)N2CC(=O)N1CCCCC1	inactive: -21.7%
Cc1ccccc1-c1nc(CS(=O)(=O)CC(=O)Nc2cc(Cl)cc(Cl)c2)c(C)o1	inactive: 17.4%
Cc1cccc(OCC(=O)N(Cc2ccccc2)c2ccccn2)c1	inactive: -14.9%
CS(=O)(=O)N1CCCc2cc(C(=O)Nc3cccc(C(F)(F)F)c3)ccc21	inactive: 2.28%

SMILES	activation
COc1ccc(C2C(=O)N(C3CCCCCC3)CC(=O)N2CCC2=CCCCC2)cc1 (configuration not stated)	inactive: -35.6%
COC(=O)c1cnc(N2CCN(c3ccc(F)cc3)CC2)c2ccccc12	inactive: -15.9%
COc1ccc(CCNC(=O)c2ccc3c(Cl)c4c(nc3c2)CCCC4)c(OC)c1	inactive: -7.4%
CC1CCC(NC(=O)c2ccc(CS(=O)(=O)c3c(Cl)cccc3Cl)o2)CC1 (configuration not stated)	inactive: 43.6%
CC(=O)c1ccc(N2CCN(c3ncnc4onc(C)c34)CC2)cc1	inactive: 3.9%
COC(=O)c1ccc(CSc2nc3c(c(=O)[nH]2)CCC3)cc1	inactive: 7.96%
O=C(NCCN1CCCCC1)c1ccc(Cn2c(SCc3cccc(F)c3)nc3cccnc32)cc1	inactive: -4.95%
COc1ccc(OCC(=O)Nc2ccccc2C(=O)OCc2cc(=O)n3nc(C)sc3n2)cc1	inactive: -7.69%
COc1cc(-c2nc(-c3cccc(Cl)c3)c(-c3ccccc3)[nH]2)cc(OC)c1OC	inactive: -26.3%
Cc1ccc(NC(=O)Cn2c(=O)n(Cc3ccc4c(c3)OCO4)c(=O)c3ccccc32)c(C)c1	inactive: -27.8%
CCc1ccccc1NC(=O)Cn1c(=O)n(Cc2ccco2)c(=O)c2sc3ccccc3c21	inactive: -2%
Cc1ccc2nc(N3CCN(c4cccc(C)c4C)CC3)c3nncn3c2c1	inactive: 0.304%
Cc1ccc(C)c(N2CCN(S(=O)(=O)c3cnc(N)nc3)CC2)c1	inactive: -19.6%
CC(C)CCn1c(=O)c2sccc2n2c(CCCC(=O)NC3CCC(C)CC3)nnc12 (configuration not stated)	inactive: -11.3%
CCOC(=O)c1ccc2c(c1)N(Cc1ccccc1)C(=O)c1ccccc1S2	inactive: -37%
COc1cccc(-c2cc(C(=O)Nc3ccn(Cc4ccc(C)cc4)n3)no2)c1	inactive: 49.5%
CC(C)c1ccc2oc(-c3ccc(NC(=O)c4cc5ccccc5o4)cc3)nc2c1	inactive: 9.17%
COc1ccc(CCNC(=O)CCSCc2ccccc2Cl)cc1OC	inactive: -13.2%
O=C(NCCS(=O)(=O)N1CCN(c2ccc(F)cc2)CC1)C1CC(=O)N(c2ccc(F)cc2)C1 (configuration not stated)	inactive: -3.2%
